Data on 53 compounds can be found in paper PMC4336329 (PLoS ONE, 2015).

Molecules are shown by their SMILES. The campaign covered roughly 310,000 compounds. About 2,200 (0.71%) showed an effect of 50% or more. The effect is printed as a negative number. Some of the results follow.

The target of this experiment is human ether-à-go-go-related gene (hERG) potassium channel (human, UniProt Q12809). Briefly: primary screen, population patch clamp on CHO cells stably expressing hERG.
Sequence of human ether-à-go-go-related gene (hERG) potassium channel (Q12809 whole entry, looked up): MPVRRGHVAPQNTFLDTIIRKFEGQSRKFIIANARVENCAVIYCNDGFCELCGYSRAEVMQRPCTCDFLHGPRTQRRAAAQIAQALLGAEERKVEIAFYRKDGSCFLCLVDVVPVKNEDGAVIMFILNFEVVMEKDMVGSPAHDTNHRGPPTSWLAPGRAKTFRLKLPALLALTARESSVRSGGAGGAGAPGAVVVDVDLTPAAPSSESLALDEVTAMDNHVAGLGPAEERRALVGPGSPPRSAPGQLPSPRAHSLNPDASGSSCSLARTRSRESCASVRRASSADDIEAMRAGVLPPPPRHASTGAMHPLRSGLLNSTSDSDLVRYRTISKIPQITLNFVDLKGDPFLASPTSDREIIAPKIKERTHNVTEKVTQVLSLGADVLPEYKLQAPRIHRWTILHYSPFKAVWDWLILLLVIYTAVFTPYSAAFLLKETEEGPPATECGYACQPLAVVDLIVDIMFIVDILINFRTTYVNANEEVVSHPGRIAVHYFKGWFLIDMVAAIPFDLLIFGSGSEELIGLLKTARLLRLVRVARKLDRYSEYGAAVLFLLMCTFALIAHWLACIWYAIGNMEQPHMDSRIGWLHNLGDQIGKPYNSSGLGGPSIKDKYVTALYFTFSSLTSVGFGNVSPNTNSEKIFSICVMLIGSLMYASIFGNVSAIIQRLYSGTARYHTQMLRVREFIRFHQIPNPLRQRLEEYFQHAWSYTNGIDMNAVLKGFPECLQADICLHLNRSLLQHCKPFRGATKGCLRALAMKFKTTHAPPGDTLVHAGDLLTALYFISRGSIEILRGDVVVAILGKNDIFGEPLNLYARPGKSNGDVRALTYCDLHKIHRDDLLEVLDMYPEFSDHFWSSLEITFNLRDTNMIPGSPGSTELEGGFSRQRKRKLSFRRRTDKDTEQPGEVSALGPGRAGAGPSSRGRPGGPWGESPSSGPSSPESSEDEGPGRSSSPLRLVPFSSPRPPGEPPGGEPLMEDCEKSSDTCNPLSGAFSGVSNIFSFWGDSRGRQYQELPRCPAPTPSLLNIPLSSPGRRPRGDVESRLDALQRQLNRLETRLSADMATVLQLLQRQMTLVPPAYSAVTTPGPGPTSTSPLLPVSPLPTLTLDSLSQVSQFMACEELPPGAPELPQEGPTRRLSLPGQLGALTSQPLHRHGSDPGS
Take `CCN(C(=O)CSc1nnc2ccccn12)c1c(N)n(Cc2ccccc2)c(=O)[nH]c1=O`: the “hERG current change (%, negative = inhibition) at 1uM” value was 14.6%. Turning to `CCn1nc(C(=O)OC(C(=O)c2c[nH]c3ccccc23)c2ccccc2)c2ccccc2c1=O` (centres unmarked), the “hERG current change (%, negative = inhibition) at 1uM” value is reported as 2.31%. The value for `O=C(Nc1nnc(SCc2c(Cl)cccc2Cl)s1)C1CCCO1` (centres unmarked) was -0.221%; that for `Br.N=C(N)SCc1nc2ccccc2c(=O)n1-c1ccccc1` was 8.84%; that for `O=C(Cn1nnc2ccccc2c1=O)NCCc1ccc(F)cc1` was 9.54%. As for `CCOC(=O)c1cnn2cc(-c3[nH]ncc3[N+](=O)[O-])cnc12`, the “hERG current change (%, negative = inhibition) at 1uM” value worked out at 5.82%. On to `COc1ccc(-n2c(C)c(C(=O)O)c3cc(OC)c4ccccc4c32)cc1`, for which the “hERG current change (%, negative = inhibition) at 1uM” value turned out to be 8.49%. The value for `Cc1cc(C)n(-c2ccc(Cl)c(C(=O)Nc3ccc(-c4nnc5n4CCCCC5)cc3)n2)n1` was 0.593%; that for `O=C1COc2ccc(S(=O)(=O)N3CCN(c4cccc(Cl)c4)CC3)cc2N1` was 9.72%; that for `N/C(=N\OC(=O)c1ccccc1Cl)c1ccccc1` was -12.6%. `O=c1cnnc(SCc2ccc([N+](=O)[O-])cc2)[nH]1`: the “hERG current change (%, negative = inhibition) at 1uM” value was -0.281%.

As for `O=C(O)CC(c1cccc2ccccc12)n1cccc1` (centres unmarked), the “hERG current change (%, negative = inhibition) at 1uM” value was 10.7%. As to `CCOC(=O)c1c(NC(=O)C2C3C=CC(C3)C2C(=O)O)sc2c1CC(C)CC2` (centres unmarked), the “hERG current change (%, negative = inhibition) at 1uM” value is on record as 17.4%. Take `N#CC1=C(N)NC(SCc2ccccc2)=C(C#N)C12CCCC2`: the “hERG current change (%, negative = inhibition) at 1uM” value is 0.374%. As for `CC(C)C(=O)Nc1sc2c(c1C(N)=O)CCN(Cc1ccccc1)C2.Cl`, the “hERG current change (%, negative = inhibition) at 1uM” value is on record as -40.9%. On to `COCCCNC(=O)Cn1c(=O)n(Cc2ccccc2Cl)c(=O)c2cc(OC)c(OC)cc21`, for which the “hERG current change (%, negative = inhibition) at 1uM” value is 8.28%.

As to `CN(C)/C=C/C(=O)/C=C/c1cn(-c2ncc(C(F)(F)F)cc2Cl)c2ccccc12`, the “hERG current change (%, negative = inhibition) at 1uM” value turned out to be 10.8%. `COc1ccc(-c2nnn(CC(=O)N(CCCO)C(C(=O)NC3CCCC3)c3ccncc3)n2)cc1` (centres unmarked): the “hERG current change (%, negative = inhibition) at 1uM” value is recorded as 20%. As for `COc1ccc(CNC(=O)COC(=O)c2cncc(Br)c2)cc1`, the “hERG current change (%, negative = inhibition) at 1uM” value is -0.142%. Consider `Cc1ccc2nc(SCc3nnc(-c4ccccc4)o3)[nH]c2c1`, for which the “hERG current change (%, negative = inhibition) at 1uM” value turned out to be 3.72%. In the case of `CCOC(=O)c1sc(NC(=O)c2cccc(S(=O)(=O)N3CCc4ccccc43)c2)c(C#N)c1C`, the “hERG current change (%, negative = inhibition) at 1uM” value was 3.28%.

`Cc1nn(Cc2c(Cl)cccc2Cl)c(C)c1NC(=O)c1cnn2c(C(F)F)cc(-c3ccccc3)nc12`: the “hERG current change (%, negative = inhibition) at 1uM” value stood at 11%. Consider `COc1cccc(CN(C(=O)COc2ccccc2[N+](=O)[O-])C2CCS(=O)(=O)C2)c1` (centres unmarked), for which the “hERG current change (%, negative = inhibition) at 1uM” value is on record as -3.69%. Regarding `COc1ccc(/C(O)=C2\C(=O)C(=O)N(CCN(C)C)C2c2cccc(OC)c2OC)cc1Cl` (centres unmarked), the “hERG current change (%, negative = inhibition) at 1uM” value came out at 9.03%. Turning to `Cc1nc2ccccc2cc1C(=O)N/N=C/c1cccc([N+](=O)[O-])c1`, the “hERG current change (%, negative = inhibition) at 1uM” value is on record as 4.73%. Regarding `CC1CCC(CN2CCN=C2N(C)C)CC1` (centres unmarked), the “hERG current change (%, negative = inhibition) at 1uM” value was 0.857%. The value for `C/C(=N\NC(=O)C1CCCC1)c1ccc(Cl)cc1Cl` was 14.1%; that for `O=C(CCCC(=O)c1ccccc1)NCCc1ccccc1` was 12.3%; that for `O=C1c2ccccc2C(=O)N1CC(=O)N1c2ccccc2CCc2ccccc21` was 12.1%. Then `COc1ccccc1OCC(=O)Nc1cccc(-c2nc3ccccc3o2)c1`, with 1.28%; and `NC(=O)/C(=C\c1ccccc1)NC(=O)/C=C/c1ccccc1`, with 8.98%; and `CC(=O)Nc1ccc2nc(NC(=O)c3ccc([N+](=O)[O-])o3)sc2c1`, with 15.6%. In the case of `Cc1c(NC(=O)/C(=C\c2ccccc2)NC(=O)c2ccccc2)c(=O)n(-c2ccccc2)n1C`, the “hERG current change (%, negative = inhibition) at 1uM” value was found to be 14.9%. Consider `CC(=O)NC(Cc1ccc(O)cc1)C(=O)NN` (centres unmarked), for which the “hERG current change (%, negative = inhibition) at 1uM” value is recorded as 7.47%. `COc1cc(OC)c(CN2CCN(c3ccc(F)cc3)CC2)cc1Br`: the “hERG current change (%, negative = inhibition) at 1uM” value was -43.3%. Then `COc1ccc(Nc2ccc(C(=O)O)cc2[N+](=O)[O-])cc1`, with 11.9%.

As to `Cc1cc(C)nc(SCC(=O)Nc2ccc(S(=O)(=O)Nc3cc(C)on3)cc2)n1`, the “hERG current change (%, negative = inhibition) at 1uM” value was 18.9%. Then `COC(=O)c1ccc2nc(C3CCCCC3)c3c(c2c1)CCC3`, with 12.7%.

Turning to `CC(=O)NC(CCS(C)(=O)=O)C(=O)Nc1ccc(Cl)c(Cl)c1` (centres unmarked), the “hERG current change (%, negative = inhibition) at 1uM” value was determined as 3.56%. With `O=C(COC(=O)Cc1ccccc1[N+](=O)[O-])NNC(=O)c1ccc([N+](=O)[O-])cc1`, the “hERG current change (%, negative = inhibition) at 1uM” value was 10.8%. Regarding `CCOC(=O)CN1C(=O)N[C@@H](c2cccc(C(F)(F)F)c2)[C@H](C(C)=O)[C@H]1C`, the “hERG current change (%, negative = inhibition) at 1uM” value is on record as 10.9%. The value for `Cc1ccc(SCC(=O)Nc2ccc(C(=O)Nc3ccc(O)cc3)cc2)cc1` was 12.6%. Then `O=C(O)Cn1nnc(-c2ccc(OCc3ccccc3)cc2)n1`, with 16.8%. As to `CCc1ccc(N2CC(C(=O)NNC(=O)c3ccc(F)cc3)CC2=O)cc1` (centres unmarked), the “hERG current change (%, negative = inhibition) at 1uM” value is reported as -14.2%. Regarding `Cc1ccnn1-c1ccc(C(=O)N2CCCN(S(=O)(=O)c3ccc(F)cc3)CC2)cc1`, the “hERG current change (%, negative = inhibition) at 1uM” value was -32.6%. As for `Cc1ccc(-c2c(C#N)c(N)n(-c3ccccc3)c(=O)c2C#N)cc1`, the “hERG current change (%, negative = inhibition) at 1uM” value was 16.6%.

Consider `CCOc1ccc(C2C(C#N)=C(N)N3C(=C2C#N)Sc2ccccc23)cc1` (centres unmarked), for which the “hERG current change (%, negative = inhibition) at 1uM” value came to 12.8%. For the compound `Brc1ccc(CSc2nnc(Cc3c[nH]c4ccccc34)o2)cc1`, the “hERG current change (%, negative = inhibition) at 1uM” value was found to be 1.95%. Take `COc1ccc2[nH]c(C(=O)N3CCN(Cc4ccccc4)CC3)cc2c1OC`: the “hERG current change (%, negative = inhibition) at 1uM” value was determined as 7.58%. Regarding `FC(F)(F)c1ccccc1N1CC1c1ccncc1` (centres unmarked), the “hERG current change (%, negative = inhibition) at 1uM” value is recorded as 5.53%.

In the case of `CCOc1ccc(NC(=O)CN(C)C(=O)c2ccc(C)c(S(=O)(=O)N3CCCCC3)c2)cc1OCC`, the “hERG current change (%, negative = inhibition) at 1uM” value amounted to 12%. Turning to `COc1ccc(OC)c(CNC(=O)C2CCCN(S(=O)(=O)N3CCC(C)CC3)C2)c1` (centres unmarked), the “hERG current change (%, negative = inhibition) at 1uM” value is listed as 8.76%. The value for `Cc1ccc(C)c(NC(=O)CSc2nc3c(oc4ccccc43)c(=O)n2-c2ccccc2)c1` was 16.2%.
